B1: OR4K15 (parent)
chain: GUUAACGGUCAUAGGCCAUGGAAACUAGGAGCACCAUUUCGCUGCCAGUGAAGAAAUGAACAAAGAAAAUCUGGGCCAGGCAGGCAUCAAAAGAAAUAGUCUUGCGCUCAACCAGAAAGUCUGUAAUCAUUUUAAGGGUA

The source gives no read counts; variants with many changes may rest on few reads.

In the series the parent is B1. Nature of the series: self-cleavage, relative activity (ratio to wild type); higher = more cleavage; in vitro, sequencing; the parent is a self-cleaving ribozyme.
Turning to A36G A54G A67G, the self-cleavage came to 1.13.

For the variant C32U U49C A51G A82U A125G, the self-cleavage is 0.05.

For the variant A33G A89U U102C A140U, the self-cleavage turned out to be 2.29.

As to A33G A63G A67G, the self-cleavage amounted to 0.93.

For C34A A52C U131C, the self-cleavage was 1.44.

For the variant A33G A68U U87C A116G, the self-cleavage was determined as 0.16.

For the variant A33U A89G A129G, the self-cleavage stood at 0.99.

As for C32U U38C A59G A66G A78G, the self-cleavage was found to be 0.2.

Turning to A36U A51G A114G A118G, the self-cleavage came out at 0.33.

With A36U U37G U108A U132C, the self-cleavage is 0.02.

Regarding A33G U57C A96G, the self-cleavage was 0.36.

Consider A36U A63G A82G, for which the self-cleavage amounted to 0.72.

Regarding A33G A47U A67U U131A, the self-cleavage was 0.37.

Take A36G U49C A51U: the self-cleavage turned out to be 1.6.

With A36G A64G A82U U130C, the self-cleavage was 0.11.

Consider A36G A54G A64U A90G, for which the self-cleavage amounted to 0.55.

Turning to A36C A89U U133C A135G, the self-cleavage is 2.09.

On to A33G U43A U132C, for which the self-cleavage stood at 0.92.

For A33G U108C U127C, the self-cleavage is 0.01.

Consider A33G A56G A68G A78U A92G, for which the self-cleavage turned out to be 0.03.

With A36U A52G U57G, the self-cleavage was 1.35.

Turning to A36U A94G U100C U122A, the self-cleavage was found to be 1.72.

Regarding A33U A54G A67G A92G A110G, the self-cleavage was determined as 0.17.

On to A33G A56G A60G U127A, for which the self-cleavage was found to be 1.78.

As to C32U U70C A89G A95G, the self-cleavage is 1.64.

On to C34U U122G U131C, for which the self-cleavage was 2.76.

Consider A36G A66G A82C U122C, for which the self-cleavage was 0.13.

For C35U A82G A114U, the self-cleavage is 0.02.

As for A36U U57C A62G A92G U132C, the self-cleavage is 0.54.

On to A36C U49G U57G A68G A78G, for which the self-cleavage turned out to be 0.26.

Take A33G A52U U108C A117G: the self-cleavage stood at 0.01.

Regarding A33U A59G U124C, the self-cleavage worked out at 0.54.

With A33U A67G A140G, the self-cleavage is 2.79.

Take A33U A51G A62G G73U A110G: the self-cleavage is 0.01.

C34U A116G U122C: the self-cleavage worked out at 0.29.

Turning to A33G A59U A66G A69G U103C, the self-cleavage is 0.17.

With A36U A78G A96G A126U, the self-cleavage came to 0.15.

With A36U U37A A52U U87C A114U A118G U127A, the self-cleavage worked out at 0.01.

For the variant C34U A92G A111G, the self-cleavage is 0.02.

Take A36G A68G U130C: the self-cleavage turned out to be 1.22.

In the case of A33U A95G U108C A110G U130C, the self-cleavage worked out at 0.

Regarding A36G U39C A62U U100C, the self-cleavage turned out to be 2.15.

Consider A33G G44A A78G A114C C121A, for which the self-cleavage stood at 0.

In the case of A33G A60G A94G, the self-cleavage was determined as 1.57.

For the variant A36C G44A U87A A91G A140G, the self-cleavage amounted to 2.02.

For A33U A54G A92G, the self-cleavage is 0.74.

For the variant A36U A92G U100C U102C, the self-cleavage came out at 2.14.

Consider A36G A59G U72C U108C, for which the self-cleavage was determined as 0.02.

Turning to A33G A56G A66U, the self-cleavage turned out to be 0.57.

Take A33G U57G A69G A90G A96G: the self-cleavage stood at 0.5.

For the variant A33U U39C U87C U103C, the self-cleavage stood at 1.02.

For A33G A51G U124C, the self-cleavage is 0.26.

As for A33U A54G A118U, the self-cleavage came out at 0.78.

For A36G A47G A67G A94U U130C, the self-cleavage was 0.98.

Regarding C34G U87C A90G A96G U124G, the self-cleavage came out at 0.36.

With A33G A59U A125G G137A, the self-cleavage was 0.

With A36G A78U A95G A96G, the self-cleavage worked out at 0.22.

Consider A33U U39C A69G U72A A90G A95G A96G A114G, for which the self-cleavage was determined as 0.08.

As for A33C A91G U122A, the self-cleavage was 1.19.

Turning to A36G A47G A67G G75C, the self-cleavage stood at 0.14.

For the variant A33U U38C C61G U87A A89U, the self-cleavage came out at 1.39.

With A36G A110G U131C, the self-cleavage came to 0.03.

As to A36G A89G A126G, the self-cleavage came out at 0.51.

On to A36G A116U A140U, for which the self-cleavage was determined as 0.4.

On to A33U A55G A59G U87A U108C, for which the self-cleavage turned out to be 0.01.

Turning to A33G A36U A51U, the self-cleavage was 1.21.

As to A33U A64G A90G A117G, the self-cleavage was 1.96.

With A33G U43A A117G A135G, the self-cleavage turned out to be 1.71.

For the variant A33G A52G A63G A78G, the self-cleavage is 0.21.

With A33G A51G A91G, the self-cleavage was 0.41.

A33G A51G U108C: the self-cleavage worked out at 0.01.

Consider C35U A68G U70A, for which the self-cleavage was found to be 0.42.

With A33G U43A A52G A59U A60G U120C C121A, the self-cleavage worked out at 2.99.

For the variant U37A A63U U130C, the self-cleavage came out at 0.31.

Consider A36U U87C A116G, for which the self-cleavage amounted to 0.25.

With C35A U43C A47G, the self-cleavage was found to be 0.57.

Turning to A33G U57C A82G, the self-cleavage came to 0.2.

On to A36G U43A A62G U87C A91G U122C A129U, for which the self-cleavage turned out to be 0.33.

Take A33U U39A A59G: the self-cleavage worked out at 1.47.

For the variant A33G A36G A56G A78U A86G U102C, the self-cleavage was 0.53.

A36G A78U U102C: the self-cleavage worked out at 0.85.

A33G A64G A69G: the self-cleavage came to 0.89.

For A33G A51G A60G A91G, the self-cleavage is 0.41.

The values above are taken from the RNAGym collection of RNA variant scans (doi:10.7554/elife.90254).
